The source of these data is PMC4049591.

Protein sequences, listed by entry. Tags and fused reporters are not part of them. Lines headed by an entry give the natural chain unless they say otherwise; changes in a name come on top. Chains listed by the source or under a name are the forms on record and can include a tag or linker. Residues count along the entry.
Full length human sonic hedgehog with HA tag (SHH-HA), glycosylated (Q15465, residues 24-462): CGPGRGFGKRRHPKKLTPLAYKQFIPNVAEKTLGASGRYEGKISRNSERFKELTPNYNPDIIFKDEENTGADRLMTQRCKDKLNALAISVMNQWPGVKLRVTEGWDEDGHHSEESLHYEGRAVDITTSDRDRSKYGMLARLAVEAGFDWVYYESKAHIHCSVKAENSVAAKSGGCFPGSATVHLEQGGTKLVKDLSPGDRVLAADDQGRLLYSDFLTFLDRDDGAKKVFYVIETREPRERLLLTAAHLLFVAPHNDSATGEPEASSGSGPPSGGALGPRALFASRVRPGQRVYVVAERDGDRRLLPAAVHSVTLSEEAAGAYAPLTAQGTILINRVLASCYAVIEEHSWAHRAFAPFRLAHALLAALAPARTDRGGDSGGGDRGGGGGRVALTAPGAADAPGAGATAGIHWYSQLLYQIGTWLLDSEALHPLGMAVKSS
Non-glycosylated human sonic hedgehog mutant N278A with HA tag (N278A-HA) (Q15465, form named): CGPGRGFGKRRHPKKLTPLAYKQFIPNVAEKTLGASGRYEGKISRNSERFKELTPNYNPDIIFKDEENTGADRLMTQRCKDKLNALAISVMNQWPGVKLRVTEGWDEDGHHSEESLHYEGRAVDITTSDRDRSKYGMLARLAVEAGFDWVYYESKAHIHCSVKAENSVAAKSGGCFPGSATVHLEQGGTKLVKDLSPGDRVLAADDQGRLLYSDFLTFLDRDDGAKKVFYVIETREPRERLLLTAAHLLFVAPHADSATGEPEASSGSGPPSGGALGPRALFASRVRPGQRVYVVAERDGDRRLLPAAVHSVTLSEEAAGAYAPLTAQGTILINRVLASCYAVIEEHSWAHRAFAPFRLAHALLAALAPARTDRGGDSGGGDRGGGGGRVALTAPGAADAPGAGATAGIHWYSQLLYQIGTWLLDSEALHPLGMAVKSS

No constants are given. Whether binding was seen depends on the method and setting. In cells and extracts the contact can be indirect. Some results given as binding are weak or reduced against the parent protein; the word gives no strength. For some assays here: Where a sequence is shown, tags or fusion partners need not be part of it.

Assay [1] concerns the target T1, Myc-tagged EDEM3 active site mutant D293N (human) (UniProt Q9BZQ6).
T1 sequence: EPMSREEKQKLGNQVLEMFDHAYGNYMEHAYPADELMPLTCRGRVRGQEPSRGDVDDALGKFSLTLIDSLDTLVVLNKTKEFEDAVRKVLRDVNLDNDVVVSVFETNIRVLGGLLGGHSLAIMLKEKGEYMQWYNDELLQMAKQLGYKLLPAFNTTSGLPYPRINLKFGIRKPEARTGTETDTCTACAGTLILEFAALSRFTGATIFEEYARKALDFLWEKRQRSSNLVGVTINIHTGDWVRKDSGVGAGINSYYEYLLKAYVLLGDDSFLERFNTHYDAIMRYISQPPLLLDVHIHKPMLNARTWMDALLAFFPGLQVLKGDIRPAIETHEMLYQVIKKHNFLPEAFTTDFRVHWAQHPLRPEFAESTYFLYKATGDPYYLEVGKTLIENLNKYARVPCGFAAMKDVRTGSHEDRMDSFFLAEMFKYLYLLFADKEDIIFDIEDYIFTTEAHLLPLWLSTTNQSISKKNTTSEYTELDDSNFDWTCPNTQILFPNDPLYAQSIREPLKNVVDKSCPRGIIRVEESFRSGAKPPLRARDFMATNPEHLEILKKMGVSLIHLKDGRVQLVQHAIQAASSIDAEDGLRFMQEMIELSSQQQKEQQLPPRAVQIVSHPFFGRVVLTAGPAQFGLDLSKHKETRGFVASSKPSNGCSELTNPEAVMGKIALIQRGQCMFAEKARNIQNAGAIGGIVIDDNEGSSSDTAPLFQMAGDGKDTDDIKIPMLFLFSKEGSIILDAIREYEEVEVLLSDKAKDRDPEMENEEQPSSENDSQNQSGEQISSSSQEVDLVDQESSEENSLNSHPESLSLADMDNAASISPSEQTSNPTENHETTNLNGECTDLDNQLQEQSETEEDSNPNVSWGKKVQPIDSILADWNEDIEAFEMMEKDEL
Description: co-IP; 293T cells transfected with Myc-tagged EDEMs (10% of the DNA normally used); lysed in buffer with 1% Triton; immunoprecipitated with Myc antibodies; blotted for endogenous SEL1L, HRD1, Bip, calnexin and ERp57.

The target in assay [2] is T2, Myc-tagged wild type EDEM1 (human) (UniProt Q92611).
T2 sequence: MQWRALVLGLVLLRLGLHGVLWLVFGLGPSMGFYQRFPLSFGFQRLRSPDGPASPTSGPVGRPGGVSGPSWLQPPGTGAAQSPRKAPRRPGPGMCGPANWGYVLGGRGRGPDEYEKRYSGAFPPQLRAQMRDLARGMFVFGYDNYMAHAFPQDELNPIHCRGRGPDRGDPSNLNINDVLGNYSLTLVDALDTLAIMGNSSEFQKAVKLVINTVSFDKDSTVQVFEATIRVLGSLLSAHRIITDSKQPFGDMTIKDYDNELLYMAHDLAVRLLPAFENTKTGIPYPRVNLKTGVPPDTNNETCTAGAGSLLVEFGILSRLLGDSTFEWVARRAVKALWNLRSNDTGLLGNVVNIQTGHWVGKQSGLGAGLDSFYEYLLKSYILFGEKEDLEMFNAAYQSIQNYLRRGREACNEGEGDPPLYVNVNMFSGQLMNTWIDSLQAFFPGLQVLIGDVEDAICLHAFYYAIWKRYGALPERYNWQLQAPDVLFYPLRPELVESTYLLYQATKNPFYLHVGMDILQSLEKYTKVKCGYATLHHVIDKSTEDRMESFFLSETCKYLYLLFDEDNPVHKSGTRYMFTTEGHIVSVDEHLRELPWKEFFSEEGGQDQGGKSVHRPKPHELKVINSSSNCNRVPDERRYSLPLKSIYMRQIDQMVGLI
The description is as above.

Assay [3] concerns the target T3, Myc-tagged wild type EDEM2 (human) (UniProt Q9BV94).
T3 sequence: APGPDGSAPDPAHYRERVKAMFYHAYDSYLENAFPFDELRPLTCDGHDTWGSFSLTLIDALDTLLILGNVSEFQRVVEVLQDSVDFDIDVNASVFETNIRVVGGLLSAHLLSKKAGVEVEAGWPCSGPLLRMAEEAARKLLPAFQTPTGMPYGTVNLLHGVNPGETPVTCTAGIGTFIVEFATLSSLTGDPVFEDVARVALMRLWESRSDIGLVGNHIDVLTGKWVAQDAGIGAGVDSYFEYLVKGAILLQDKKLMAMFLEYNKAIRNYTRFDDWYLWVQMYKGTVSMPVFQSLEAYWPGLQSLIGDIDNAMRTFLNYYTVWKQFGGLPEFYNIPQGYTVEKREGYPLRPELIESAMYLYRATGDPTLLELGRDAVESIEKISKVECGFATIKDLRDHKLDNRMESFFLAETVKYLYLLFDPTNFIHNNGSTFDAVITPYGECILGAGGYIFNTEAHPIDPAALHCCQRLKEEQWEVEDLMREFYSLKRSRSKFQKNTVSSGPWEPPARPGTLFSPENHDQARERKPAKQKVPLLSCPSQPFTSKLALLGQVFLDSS
The description is as above.

Assay [4] addresses Full length human sonic hedgehog with HA tag (SHH-HA), glycosylated (human) (UniProt Q15465). Put plainly: co-IP; 293T cells stably expressing SHH-HA or N278A-HA, untreated or treated with castanospermine (CST, 0.2 mg/ml, 90 min); lysed in buffer with 1% digitonin; immunoprecipitated with HA antibodies; blotted for endogenous calnexin, calreticulin and ERp57.
Assay [5] concerns the target Non-glycosylated human sonic hedgehog mutant N278A with HA tag (N278A-HA) (human) (UniProt Q15465). The assay is described as above.

B1: Calnexin (protein, UniProt P27824 21-592)
chain: HDGHDDDVIDIEDDLDDVIEEVEDSKPDTTAPPSSPKVTYKAPVPTGEVYFADSFDRGTLSGWILSKAKKDDTDDEIAKYDGKWEVEEMKESKLPGDKGLVLMSRAKHHAISAKLNKPFLFDTKPLIVQYEVNFQNGIECGGAYVKLLSKTPELNLDQFHDKTPYTIMFGPDKCGEDYKLHFIFRHKNPKTGIYEEKHAKRPDADLKTYFTDKKTHLYTLILNPDNSFEILVDQSVVNSGNLLNDMTPPVNPSREIEDPEDRKPEDWDERPKIPDPEAVKPDDWDEDAPAKIPDEEATKPEGWLDDEPEYVPDPDAEKPEDWDEDMDGEWEAPQIANPRCESAPGCGVWQRPVIDNPNYKGKWKPPMIDNPSYQGIWKPRKIPNPDFFEDLEPFRMTPFSAIGLELWSMTSDIFFDNFIICADRRIVDDWANDGWGLKKAADGAAEPGVVGQMIEAAEERPWLWVVYILTVALPVFLVILFCCSGKKQTSGMEYKKTDAPQPDVKEEEEEKEEEKDKGDEEEEGEEKLEEKQKSDAEEDGGTVSQEEEDRKPKAEEDEILNRSPRNRKPRRE
Regarding B1, the binding entry is listed as “binds” in assay [1]; “binds” in assay [2]; “binds” in assay [3]; “binds” in assay [4]; “no binding” in assay [5].
